Experimental data reported in ChEMBL document CHEMBL4888484, “Replenishing the malaria drug discovery pipeline: Screening and hit evaluation of the MMV Hit Generation Library 1 (HGL1) against asexual blood stage Plasmodium falciparum ,using a nano luciferase reporter read-out” (2022).
In all, about 4,800 compounds went through this assay and about 420 (8.8%) showed an effect of 50% or more. The list shows a part of the results.

System: Plasmodium falciparum
Assay: Confirmatory screen in NF54 nanoGlo assay, in single point, at 2uM, 72h
Type: functional, Erythrocyte
Details: timepoint 72 hour

Compound	% Inhibition [%]
O=C(c1ccccc1)c1c[nH]c2c(F)cc(F)cc2c1=O	-5
O=C(NC1CCS(=O)(=O)C1)C1CC=CCC1 (stereo not drawn)	-6
CCCN(CCO)C(=O)Nc1ccn(Cc2cn3ccccc3n2)n1	-1
N#CC1CCC(Nc2cnn(-c3ccncc3)c2)CC1 (stereo not drawn)	5
Cc1ccc(Cn2cnc(NC(=O)CCn3c(=O)cc(C(F)F)c4cn(C)nc43)n2)cc1	-8
COCCCn1c(NS(=O)(=O)c2ccc3ccccc3c2)c(S(=O)(=O)c2ccc(C)cc2)c2nc3ccccc3nc21	56
COc1cc(CNCCc2ccccc2F)ccc1OCc1nnnn1-c1ccc(C)cc1	-2
CCC(C)(CC)[C@@](O)(C#CC[N+]1(Cc2ccccc2)CCCCC1)c1ccccc1	7
Nc1nc2c(s1)CN(CCc1ccccc1)CC2	38
Cc1cc(NC(=O)c2ccc(COc3ccc4ccccc4c3)o2)nn1C	-3
CCNC(=O)C(=O)NCc1ccc(Cl)cc1	2
NC(=O)c1ccccc1NC(=O)C1CCN(c2cc(C3CC3)ncn2)CC1	53
CN(Cc1ccccc1)C(=O)C1CC=CCC1C(=O)Nc1ncc(-c2ccc3c(c2)OCO3)n1C (stereo not drawn)	8
Cc1ccc(-c2cc3c(N4CCCN(C)CC4)nccn3n2)c(C)c1	4
COc1ccc(OCc2nc3cc4c(cc3cc2C(=O)O)OCO4)cc1	2
CO[C@@H](CNc1nc(C)c(S(N)(=O)=O)s1)c1ccc(F)cc1	-4
CN(CCCNC(=O)Cc1n[nH]c(=O)c2ccccc12)Cc1ccccc1	-2
CCS(=O)(=O)c1cccc(N[C@@H](C)COC)c1	0
CCN1CCN(c2cccc(NC(=O)c3cc(F)cc4c(=O)c5cc(F)ccc5[nH]c34)c2)CC1	97
CNC(=O)c1cc(NS(=O)(=O)N2CCCCCC2)ccc1F	-8
COc1ccccc1C(=O)NC1=C(C)Nc2ncnn2[C@H]1c1c[nH]c2ccccc12	-5
C[C@@H]1Oc2ccc(-c3csc(NC(=O)c4ccccc4Cl)n3)cc2N(C)C1=O	6
C[C@H](NC(=O)c1cc(F)cc(F)c1)c1ccccc1NC(=O)c1cc(F)cc(F)c1	-2
CC1CCC2(CC1)N=C(c1ccccc1)C(=O)N2CC(=O)N[C@H]1CCc2ccccc21 (stereo partly drawn)	-3
C[C@]1(CCc2ccc(O)cc2)Nc2ccccc2-c2nc(=O)c(-c3ccc(F)cc3)nn21	8
Cc1ccc(C)c(C(=O)Cn2nc3ccc(-c4ccc(Cl)cc4)nn3c2=O)c1	-7

Compound	% Inhibition [%]
O=C(NC1(C(F)(F)F)Oc2cc(Cl)c(Cl)cc2O1)N1CCCC1	-11
Cc1oc(C(=O)N2CC3(CCCC3)c3ccccc32)cc1S(=O)(=O)N(C)C	4
O=C(Nc1ccccc1CN1CCc2ccccc21)NC1CCC(O)CC1 (stereo not drawn)	-2
Cc1ccnc2nc(C(=O)N(C)c3ccc(Cl)cn3)nn12	16
Cn1c(-c2ccc(-c3ccccc3)cc2)cn2cc(-c3cccc(Br)c3)nc12	0
CCN(C[C@H]1CCCO1)C(=O)c1cnc(Cc2ccccc2)s1	-16
CCN(C(C)=O)c1nc(CN2C(=O)N[C@](C)(c3ccc(F)cc3Br)C2=O)cs1	4
CCn1cnc2c(N3CCC[C@H](c4ccncc4)C3)ncnc21	68
CCN(CCN(C)C)C(=O)c1cccc(-c2ccc3nccc(N)c3c2)c1	70
CC(C)c1cnc(NCCCC[C@H]2CCCO2)nc1	-2
Cc1cc(C)n(C(=O)CNC(=O)c2cccs2)n1	-11
Cc1c(C(C)C)c(=O)n(-c2ccc(S(=O)(=O)N3CCN(c4nc5ccccc5nc4-c4ccccc4)CC3)cc2)n1C	-20
O=C(NCc1ccncc1)c1ccco1	-11
Cc1ccccc1Cn1cnc2c1c(=O)n(C1CCCCC1)c(=O)n2-c1ccccc1Cl	78
c1ccc(N2CCN(c3nc(N4CCCC4)c4nccnc4n3)CC2)cc1	3
Cc1ccc(Nc2c(C(=O)NCc3ccc(F)cc3)cnc3c2c(C)nn3C)cc1	-3
CCc1ccc([C@H]2NCCc3[nH]cnc32)nc1	29
O=C(C1CN(c2ncc(C(F)(F)F)cc2Cl)C1)N1CCCC1	1
CCOC(=O)c1ccc(N2CCN(Cc3ccccc3)CC2)c(NC(=O)COc2ccc(Cl)cc2C)c1	-4
NCc1cccc(C(=O)N2CCc3cc4ccc3[C@@H]2c2cccc(c2)OCCCNC(=O)c2cc(ccc2O)O4)c1	93
Cc1cc(N2C(=O)CCS2(=O)=O)cc(C)c1S(=O)(=O)NCc1ccccn1	2
CCOc1c(CNCCN(C)C)cc(Br)cc1OC	-3
Cc1onc(-c2ccccc2)c1C(=O)c1c[nH]c(C(=O)NCc2ccncc2)c1	-4
COc1c[nH]c(C(=O)NC2CCN(Cc3ccccc3)CC2)cc1=O	5
O=C(CCC(=O)c1ccccc1)NC1CCC(O)CC1 (stereo not drawn)	1
CCN(CC)CCn1c2ccccc2n2cc(-c3ccc(Br)cc3)nc12	59

Compound	% Inhibition [%]
Cc1cc(C)nc(NCCC[C@H]2CCCCO2)n1	-6
Cc1ccc(C(=O)NCCn2cnc3ccccc3c2=O)cn1	-9
COc1ccc(NC(=O)N2CC[C@H](CC(=O)NCc3ccccc3)C2)cc1OC	-10
CCOc1ccc(-c2ccnc3c(C(=O)NCc4ccc5c(c4)OCO5)cnn23)cc1	-3
COCCOc1ccc2c(n1)CCN(C(=O)Nc1ccccc1C)C2	-10
CCOC(=O)c1ncc(Cl)c(C#N)c1Cl	-6
CC1=C[C@@H](CNCc2cccnc2)[C@H](C(C)C)C[C@H]1Cc1nc2cccnc2[nH]1	11
CCCc1nn(CC(N)=O)c(CCC)c1CC	-10
C[C@H](Oc1ccccc1)C(=O)Nc1cccc(-c2nnco2)c1	-11
Cc1ccn(Cc2nc(N)nc(N(C)C)n2)c(=O)c1C#N	-2
CC(C)c1ccc(NC(=O)CCC(=O)N2CCc3ccccc3C2)cc1	-2
Cc1nc(-c2ccc3[nH]c(=O)[nH]c3c2)cs1	6
Cc1noc([C@H]2CCCN(C(=O)c3cc4c(s3)CCC4)C2)n1	-10
COc1ccc(CCc2n[nH]c(NC(=O)CCc3c[nH]c4ccccc34)n2)cc1OC	14
CC(=O)c1ccc(N2CC[S+]([O-])CC2)nc1	-6
Cc1nc(CNc2cnc3cc(Cl)c(Cl)cc3n2)no1	2
O=C(Nc1ccc(N2CCn3c(nc4cc(Cl)ccc43)C2)cc1)NC1CCCCC1	-5
O=C(NCc1cccnc1Oc1ccccc1)c1cccnc1	5
O=C(CN1CCC(c2ccnn2CCO)CC1)N(Cc1ccccc1)C1CC1	-3
COC(=O)C1(C)CC2(C)CC(C)(C1)C(=O)N(C)C2=O (stereo not drawn)	-7
CCn1cc(C#N)c(=O)c2cc(F)c(N3CCN(Cc4ccccc4)CC3)cc21	69
O=C([C@@H]1CCCN1c1ncc(C(F)(F)F)cc1Cl)N1Cc2ccccc2C1	-17
COC(=O)CN(CCC(F)(F)F)c1nc(C)nc(N(C)C)n1	-8
Cc1nn(Cc2ccccc2)c(=O)n1-c1ccc(OCc2ccccc2)cc1	-19
CCOc1cccc(Cn2cc(Br)ccc2=O)n1	-5
COc1ccc(NC(=O)[C@@H](C)C2CCOCC2)cc1	-6

Compound	% Inhibition [%]
COc1c(C)cc(C(=O)[C@H]2CCCN(c3cc(N)ncn3)C2)cc1C	32
Cn1cc(N)c(Oc2ccc3c(c2)OCO3)n1	0
O=C(C[C@H]1CCN(C(=O)c2ccc(F)cc2)C1)NC1CC1	-11
Cn1ccc(NC(=O)c2cccc3ccccc23)n1	-8
COc1ccc(OCC(=O)Nc2ccc(N3CCn4c(nc5cc(Cl)ccc54)C3)cc2OC)cc1	-7
CN(C(=O)Cn1cnc2nc(N3CCC(C(=O)NC4CC4)CC3)sc2c1=O)c1ccccc1	-14
C[C@@H]1CN(c2ccc(N)cn2)C[C@H](C)O1	-11
CC1CN(C)C(C)c2c1oc1ccc(N)cc21 (stereo not drawn)	-5
CN1C[C@@H](C(=O)Nc2csc(N3CCCCC3)n2)CC1=O	-7
Cc1ccc(-n2ccc3nc(N4CCc5ccccc5C4)ncc3c2=O)cc1C	-19
Cn1cc(CNc2ccc3c[nH]nc3c2)cn1	-6
Cc1ccc(OCC(=O)Nc2cc(C)nn2-c2nc3c(cnn3-c3ccc(C)c(C)c3)c(=O)[nH]2)cc1	65
c1ccc(C2CCC(N3CCN(Cc4ccco4)CC3)CC2)cc1 (stereo not drawn)	3
COc1ccc(-c2cn3cc(C)nc3n2C)cc1	-9
O=C(Nc1ccccc1-n1ccnc1)c1cnccn1	-15
Cc1ccc(/N=C(\N)C(Cl)(Cl)Cl)c(C)c1	-2
CCn1c(C)c(C)c2cc(C(=O)Nc3cccc(S(=O)(=O)N4CCOCC4)c3)ccc21	0
C[C@H](NC(=O)c1cocn1)c1ccccc1NC(=O)c1cocn1	-10
Cc1ccc(S(=O)(=O)N2CC(C)N(C(=O)N3CCOCC3)C2C)cc1 (stereo not drawn)	-2
Cc1ccc(/C=C(\C(=O)NC[C@H]2CCCO2)n2ccccc2=O)cc1	-3
O=C(CCC(=O)N1CCCCCC1)NCc1cccs1	7
Cc1nnc(N2CC[C@H](c3nnc[nH]3)C2)s1	-4
COc1cccc([C@H]2CC(=O)Nc3nc(N4CCCCC4)sc32)c1	6
CCOc1ccc(-c2cc3c(=O)n(CCC(=O)N4CCCC4)ccn3n2)cc1	-9
Cc1nn(C)c(C)c1CNc1ccc2c(c1)CCC(=O)N2	-10
